Hit rate of the full screen: of about 46,000 compounds, about 60 (0.1%) were called active. Inconclusive means that the source gave no clear call. Such entries were picked first, then a sample of the others. The call rests on the fitted dose curve; in most records, active means well fitted inhibition curve with a large enough effect; inconclusive means small, poorly fitted or top-dose-only effect; inactive means no such curve, though single readings can be large or run the other way. Potencies of inconclusive entries are left out as doubtful fits.
Assay: Primary qHTS assay for Inhibitors of ovarian cancer metastasis using an organotypic tumor microenvironment (TME) model. Further: nearly all actives have a fitted effect of over 65% in size.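 On Potency: count of GFP cancer cells still attached after washing and fixation.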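 On activity change, negative = inhibition: plate controls were DMSO wells for no effect and tomatine positive control wells for full effect.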
Settings: SKOV3ip1-GFP adhesion/invasion on 3D omental model, fluorescence; activity change, negative = inhibition: at 45.8 µM (top of the series); series mostly up to 45.8 µM
In short: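 A 3D layer of primary human omental fibroblasts, mesothelial cells, fibronectin and collagen I, grown 48 hr, received SKOV3ip1-GFP cells in serum-free medium plus compounds at 0.36-46 umol/L. After 2 hr RT and 16 hr 37 C, fixed adherent GFP cells were counted; normalized to DMSO and tomatine.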
With `Cc1ccc(-c2noc(CSc3nnc(C)n3-c3ccc(F)cc3)n2)cc1` the “outcome” value was “inactive”. For `COc1ccc(-c2nc3ccccc3o2)cc1NC(=O)COc1c(C)cc(Cl)cc1Cl`, the Potency was inconclusive [inhibitor, single point]. In the case of `CCC(=O)C1=C(c2cccc([N+](=O)[O-])c2)N(C(=O)CC)n2c(nnc2C2CCCCC2)S1`, the Potency is reported as inconclusive [inhibitor, full curve, poor fit]. For `Cc1ccc(C)c(CN2C(=O)C(=O)c3ccccc32)c1`, the “activity change, negative = inhibition” value was inactive: 1.06%. For `CN1C(=O)c2ccccc2Sc2ccc(NC(=O)c3ccccc3F)cc21`, the Potency was inconclusive [inhibitor, single point]. With `O=C(NCC1CCN(Cc2cccc(Cl)c2)CC1)Nc1cc(Cl)ccc1Cl` the Potency was inconclusive [inhibitor, single point]. With `CCCCCS(=O)(=O)c1oc(-c2cccs2)nc1S(=O)(=O)c1ccc(C)cc1` the Potency was inconclusive [inhibitor, single point]. For `CC(=O)c1cccc(NC(=O)C2CCN(S(=O)(=O)c3ccc4c(c3)oc(=O)n4C)CC2)c1`, the Potency was inconclusive [inhibitor, single point]. For `Cc1ccccc1C1CC(=O)Nc2ccc3ccccc3c21` (configuration not stated), the Potency was inconclusive [inhibitor, full curve, poor fit]. For `Cc1cc(Nc2cc(N3CCN(C)CC3)nc(C=Cc3ccccc3)n2)n[nH]1`, the Potency was inconclusive [inhibitor, single point]. In the case of `COc1ccc(-c2cc(C(C)=O)c(C)n2CCC(=O)Nc2cc(Cl)ccc2C)cc1`, the “activity change, negative = inhibition” value is reported as inactive: -3.54%. With `COc1cc(Oc2ccnc3cc(OC)c(OC)cc23)ccc1NC(=O)NC(C)c1nccs1` (configuration not stated) the “activity change, negative = inhibition” value was inactive: -6.53%. In the case of `CC1(C)CCC2=C(O1)c1ccccc1C(=O)C2=O`, the Potency is reported as inconclusive [inhibitor, single point]. For `CC1=C(c2ccc(C)cc2)S(=O)(=O)NC1=NCCCN1CCN(c2ccc(F)cc2)CC1`, the Potency was inconclusive [inhibitor, full curve, poor fit]. For `O=C(NCCc1ccccc1Cl)c1ccc2c(c1)nc1n2CCCCC1`, the Potency was inconclusive [inhibitor, single point]. In the case of `COc1ccc(Cn2ccc3nc(C)c(C(=O)NCc4ccc(F)cc4)cc3c2=O)cc1`, the Potency is reported as inconclusive [inhibitor, single point]. In the case of `CCn1cc(C(=O)OCC(=O)Nc2cccc(C(C)=O)c2)c(=O)c2ccc(C)nc21`, the Potency is reported as inconclusive [inhibitor, full curve, poor fit].

From PubChem BioAssay AID1963576 (National Center for Advancing Translational Sciences (NCATS), 2024)
Potency means the concentration at half of the fitted maximal effect; tags describe the fitted curve by direction and shape.
